Reference: the supplement of paper PMC8728848
The list shows a part of the results.

Assays:
Test in all cases: glycan array binding signal (z-score within array); higher = stronger binding
Conditions in all cases: glycan notation: IUPAC condensed, linker removed
[1] = molecular target: Fuc(a1-2)[Gal(a1-3)]Gal(b1-4)GlcNAc(b1-2)Man(a1-3)[Fuc(a1-2)[Gal(a1-3)]Gal(b1-4)GlcNAc(b1-2)Man(a1-6)]Man(b1-4)GlcNAc(b1-4)[Fuc(a1-6)]GlcNAc
Summary of the method: (§1)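 Columns mapping to the same glycan were averaged after glycan names were converted to IUPAC-condensed notation. The data come from 3228 arrays in the Consortium for Functional Glycomics database, limited to those with an available protein sequence. Binding is reported as a within-array Z-score averaged across arrays of one protein sequence and across linkers.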

[2] = molecular target: Fuc(a1-2)[Gal(a1-3)]Gal(b1-4)GlcNAc(b1-3)GalNAc
Summary of the method: as §1

[3] = molecular target: Fuc(a1-2)[Gal(a1-3)]Gal(b1-4)GlcNAc(b1-3)[Fuc(a1-2)[Gal(a1-3)]Gal(b1-4)GlcNAc(b1-6)]GalNAc
Summary of the method: as §1

[4] = molecular target: Fuc(a1-2)[Gal(a1-3)]Gal(b1-4)GlcNAc(b1-6)GalNAc
Summary of the method: as §1

[5] = molecular target: Fuc(a1-2)[Gal(a1-3)]Gal(b1-4)[Fuc(a1-3)]Glc
Summary of the method: as §1

[6] = molecular target: Fuc(a1-2)[Gal(a1-3)]Gal(b1-4)[Fuc(a1-3)]GlcNAc
Summary of the method: as §1

[7] = molecular target: Fuc(a1-2)[Gal(a1-3)]Gal(b1-4)[Fuc(a1-3)]GlcNAc(b1-3)GalNAc
Summary of the method: as §1

[8] = molecular target: Fuc(a1-2)[Gal(a1-4)]Gal(b1-4)GlcNAc
Summary of the method: as §1

[9] = molecular target: Fuc(a1-2)[GalNAc(a1-3)]Gal
Summary of the method: as §1

[10] = molecular target: Fuc(a1-2)[GalNAc(a1-3)]Gal(b1-3)GalNAc(a1-3)[Fuc(a1-2)]Gal(b1-4)GlcNAc
Summary of the method: as §1

[11] = molecular target: Fuc(a1-2)[GalNAc(a1-3)]Gal(b1-3)GalNAc(b1-3)Gal(a1-4)Gal(b1-4)Glc
Summary of the method: as §1

[12] = molecular target: Fuc(a1-2)[GalNAc(a1-3)]Gal(b1-3)GlcNAc
Summary of the method: as §1

[13] = molecular target: Fuc(a1-2)[GalNAc(a1-3)]Gal(b1-3)GlcNAc(b1-2)Man(a1-3)[Fuc(a1-2)[GalNAc(a1-3)]Gal(b1-3)GlcNAc(b1-2)Man(a1-6)]Man(b1-4)GlcNAc(b1-4)GlcNAc
Summary of the method: as §1

[14] = molecular target: Fuc(a1-2)[GalNAc(a1-3)]Gal(b1-3)GlcNAc(b1-2)Man(a1-3)[Fuc(a1-2)[GalNAc(a1-3)]Gal(b1-3)GlcNAc(b1-2)Man(a1-6)]Man(b1-4)GlcNAc(b1-4)[Fuc(a1-6)]GlcNAc
Summary of the method: as §1

[15] = molecular target: Fuc(a1-2)[GalNAc(a1-3)]Gal(b1-3)GlcNAc(b1-3)GalNAc
Summary of the method: as §1

[16] = molecular target: Fuc(a1-2)[GalNAc(a1-3)]Gal(b1-3)GlcNAc(b1-6)GalNAc
Summary of the method: as §1

[17] = molecular target: Fuc(a1-2)[GalNAc(a1-3)]Gal(b1-4)Glc
Summary of the method: as §1

[18] = molecular target: Fuc(a1-2)[GalNAc(a1-3)]Gal(b1-4)GlcNAc
Summary of the method: as §1

[19] = molecular target: Fuc(a1-2)[GalNAc(a1-3)]Gal(b1-4)GlcNAc(b1-2)Man
Summary of the method: as §1

[20] = molecular target: Fuc(a1-2)[GalNAc(a1-3)]Gal(b1-4)GlcNAc(b1-2)Man(a1-3)[Fuc(a1-2)[GalNAc(a1-3)]Gal(b1-4)GlcNAc(b1-2)Man(a1-6)]Man(b1-4)GlcNAc(b1-4)GlcNAc
Summary of the method: as §1

[21] = molecular target: Fuc(a1-2)[GalNAc(a1-3)]Gal(b1-4)GlcNAc(b1-2)Man(a1-3)[Fuc(a1-2)[GalNAc(a1-3)]Gal(b1-4)GlcNAc(b1-2)Man(a1-6)]Man(b1-4)GlcNAc(b1-4)[Fuc(a1-6)]GlcNAc
Summary of the method: as §1

[22] = molecular target: Fuc(a1-2)[GalNAc(a1-3)]Gal(b1-4)GlcNAc(b1-3)Gal(b1-4)GlcNAc
Summary of the method: as §1

[23] = molecular target: Fuc(a1-2)[GalNAc(a1-3)]Gal(b1-4)GlcNAc(b1-3)Gal(b1-4)GlcNAc(b1-3)Gal(b1-4)GlcNAc
Summary of the method: as §1

[24] = molecular target: Fuc(a1-2)[GalNAc(a1-3)]Gal(b1-4)GlcNAc(b1-3)GalNAc
Summary of the method: as §1

[25] = molecular target: Fuc(a1-2)[GalNAc(a1-3)]Gal(b1-4)GlcNAc(b1-3)[Fuc(a1-2)[GalNAc(a1-3)]Gal(b1-4)GlcNAc(b1-6)]GalNAc
Summary of the method: as §1

[26] = molecular target: Fuc(a1-2)[GalNAc(a1-3)]Gal(b1-4)GlcNAc(b1-6)GalNAc
Summary of the method: as §1

[27] = molecular target: Fuc(a1-2)[GalNAc(a1-3)]Gal(b1-4)[Fuc(a1-3)]GlcNAc
Summary of the method: as §1

[28] = molecular target: Fuc(a1-2)[GalNAc(a1-3)]Gal(b1-4)[Fuc(a1-3)]GlcNAc(b1-3)GalNAc
Summary of the method: as §1

[29] = molecular target: Fuc(a1-2)[GalNAc(a1-4)]Gal(b1-4)GlcNAc
Summary of the method: as §1

[30] = molecular target: Fuc(a1-2)[GalNAc(b1-3)]Gal
Summary of the method: as §1

B1: FimD (Bordetella pertussis) (protein)
chain: MPARVISFCGAALAVWAGLAVQPAMAVDPPVDCGRALGLHFWSSASLISDQTPDGTLIGKPVVGRSLLSKSCKVPDDIKEDLSDNHDGEPVDIVLELGSNYKIRPQSYGHPGIVVDLPFGSTEETGIAIYIDFGSSPMQKVGERQWLYPQKGEVLFDVLTINGDNAEVRYQAIKVGPLKRPRKLVLSQFPNLFTYKWVFMRGTSQERVLAQGTIDTDVATSTIDLKTCRYTSQTVSLPIIQRSALTGVGTTLGMTDFQMPFWCYGWPKVSVYMSATKTQTGVDGVALPATGQAAGMASGVGVQLINGKTQQPVKLGLQGKIALPEAQQTESATFSLPMKAQYYQTSTSTSAGKLSVTYAVTLNYD
Q: What does the source list for B1?
A: glycan array binding signal (z-score) [1]: -0.398; glycan array binding signal (z-score) [2]: -0.296; glycan array binding signal (z-score) [3]: 0.518; glycan array binding signal (z-score) [4]: -0.414; glycan array binding signal (z-score) [5]: -0.318; glycan array binding signal (z-score) [6]: -0.1; glycan array binding signal (z-score) [7]: 0.212; glycan array binding signal (z-score) [8]: -0.259; glycan array binding signal (z-score) [9]: -0.243; glycan array binding signal (z-score) [10]: -0.445; glycan array binding signal (z-score) [11]: -0.248; glycan array binding signal (z-score) [12]: -0.266; glycan array binding signal (z-score) [13]: 0.083; glycan array binding signal (z-score) [14]: -0.129; glycan array binding signal (z-score) [15]: 0.047; glycan array binding signal (z-score) [16]: -0.285; glycan array binding signal (z-score) [17]: -0.215; glycan array binding signal (z-score) [18]: -0.489; glycan array binding signal (z-score) [19]: -0.249; glycan array binding signal (z-score) [20]: 0.77; glycan array binding signal (z-score) [21]: -0.394; glycan array binding signal (z-score) [22]: -0.394; glycan array binding signal (z-score) [23]: 0.141; glycan array binding signal (z-score) [24]: -0.582; glycan array binding signal (z-score) [25]: -0.219; glycan array binding signal (z-score) [26]: -0.312; glycan array binding signal (z-score) [27]: 0.292; glycan array binding signal (z-score) [28]: 19.2; glycan array binding signal (z-score) [29]: -0.348; glycan array binding signal (z-score) [30]: -0.179
